Laboratory results reported in the supplement of paper PMC8728848.
The list shows a part of the results.

How the values were obtained:
Experiment in all cases: glycan array binding signal (z-score within array); higher = stronger binding
Conditions in all cases: glycan notation: IUPAC condensed, linker removed
[1] = molecular target: Gal3S(b1-4)Glc
Procedure, shortened: (§1)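 The Consortium for Functional Glycomics database supplied 3228 glycan arrays, of which those lacking an available protein sequence were dropped. The binding signal, a within-array Z-score, was averaged across arrays of the same protein sequence and across linkers. Negative scores can be read as non-binding.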

[2] = molecular target: Gal3S(b1-4)Glc6S
Procedure, shortened: as §1

[3] = molecular target: Gal3S(b1-4)GlcNAc
Procedure, shortened: as §1

[4] = molecular target: Gal3S(b1-4)[Fuc(a1-3)]Glc6S
Procedure, shortened: as §1

[5] = molecular target: Gal3S(b1-4)[Fuc(a1-3)]GlcNAc
Procedure, shortened: as §1

[6] = molecular target: Gal3S(b1-4)[Fuc(a1-3)]GlcNAc6S
Procedure, shortened: as §1

[7] = molecular target: Gal3S4S(b1-4)GlcNAc
Procedure, shortened: as §1

[8] = molecular target: Gal3S6S(b1-4)GlcNAc
Procedure, shortened: as §1

[9] = molecular target: Gal3S6S(b1-4)GlcNAc6S
Procedure, shortened: as §1

[10] = molecular target: Gal4S(b1-4)GlcNAc
Procedure, shortened: as §1

[11] = molecular target: Gal4S6S(b1-4)GlcNAc
Procedure, shortened: as §1

[12] = molecular target: Gal6P(b1-4)GlcNAc
Procedure, shortened: as §1

[13] = molecular target: Gal6S(b1-3)GlcNAc
Procedure, shortened: as §1

[14] = molecular target: Gal6S(b1-3)GlcNAc6S
Procedure, shortened: as §1

[15] = molecular target: Gal6S(b1-4)Glc
Procedure, shortened: as §1

[16] = molecular target: Gal6S(b1-4)Glc6S
Procedure, shortened: as §1

[17] = molecular target: Gal6S(b1-4)GlcNAc
Procedure, shortened: as §1

[18] = molecular target: Gal6S(b1-4)GlcNAc6S
Procedure, shortened: as §1

[19] = molecular target: GalNAc(a1-3)Gal
Procedure, shortened: as §1

[20] = molecular target: GalNAc(a1-3)GalNAc
Procedure, shortened: as §1

[21] = molecular target: GalNAc(a1-3)GalNAc(b1-3)Gal(a1-4)Gal(b1-4)Glc
Procedure, shortened: as §1

[22] = molecular target: GalNAc(a1-3)GalNAc(b1-3)Gal(a1-4)Gal(b1-4)GlcNAc
Procedure, shortened: as §1

[23] = molecular target: GalNAc(b1-3)Gal
Procedure, shortened: as §1

[24] = molecular target: GalNAc(b1-3)Gal(a1-4)Gal(b1-4)GlcNAc
Procedure, shortened: as §1

[25] = molecular target: GalNAc(b1-3)Gal(a1-4)Gal(b1-4)GlcNAc(b1-3)Gal(b1-4)Glc
Procedure, shortened: as §1

[26] = molecular target: GalNAc(b1-3)Gal(a1-6)Gal(b1-4)Glc
Procedure, shortened: as §1

[27] = molecular target: GalNAc(b1-3)GalNAc
Procedure, shortened: as §1

[28] = molecular target: GalNAc(b1-3)GlcNAc
Procedure, shortened: as §1

[29] = molecular target: GalNAc(b1-4)Gal(b1-4)Glc
Procedure, shortened: as §1

[30] = molecular target: GalNAc(b1-4)GlcNAc
Procedure, shortened: as §1

[31] = molecular target: GalNAc(b1-4)GlcNAc(b1-2)Man
Procedure, shortened: as §1

[32] = molecular target: GalNAc(b1-4)GlcNAc(b1-2)Man(a1-3)[GalNAc(b1-4)GlcNAc(b1-2)Man(a1-6)]Man(b1-4)GlcNAc(b1-4)GlcNAc
Procedure, shortened: as §1

[33] = molecular target: GalNAc(b1-4)GlcNAc(b1-3)GalNAc(b1-4)GlcNAc
Procedure, shortened: as §1

[34] = molecular target: GalNAc(b1-4)GlcNAc6S
Procedure, shortened: as §1

[35] = molecular target: GalNAc(b1-6)GalNAc
Procedure, shortened: as §1

[36] = molecular target: GalNAc3S(b1-4)GlcNAc
Procedure, shortened: as §1

[37] = molecular target: GalNAc3S(b1-4)GlcNAc3S
Procedure, shortened: as §1

[38] = molecular target: GalNAc3S(b1-4)[Fuc(a1-3)]GlcNAc
Procedure, shortened: as §1

[39] = molecular target: GalNAc4S6S(b1-4)GlcNAc
Procedure, shortened: as §1

[40] = molecular target: GalNAc6S(b1-4)GlcNAc
Procedure, shortened: as §1

[41] = molecular target: Glc(a1-4)Glc
Procedure, shortened: as §1

[42] = molecular target: Glc(a1-4)Glc(a1-4)Glc(a1-4)Glc
Procedure, shortened: as §1

[43] = molecular target: Glc(a1-6)Glc(a1-6)Glc
Procedure, shortened: as §1

[44] = molecular target: Glc(a1-6)Glc(a1-6)Glc(a1-6)Glc
Procedure, shortened: as §1

[45] = molecular target: Glc(b1-4)Glc
Procedure, shortened: as §1

B1: SBD-G4S3-Fc (protein)
chain: MASIPSSASVQLDSYNYDGSTFSGKIYVKNIAYSKKVTVVYADGSDNWNNNGNIIAASFSGPISGSNYEYWTFSASVKGIKEFYIKYEVSGKTYYDNNNSANYQVSTGGGGSGGGGSGGGGSEFVPRDCGCKPCICTVPEVSSVFIFPPKPKDVLTITLTPKVTCVVVDISKDDPEVQFSWFVDDVEVHTAQTQPREEQFNSTFRSVSELPIMHQDWLNGKEFKCRVNSAAFPAPIEKTISKTKGRPKAPQVYTIPPPKEQMAKDKVSLTCMITDFFPEDITVEWQWNGQPAENYKNTQPIMDTDGSYFVYSKLNVQKSNWEAGNTFTCSVLHEGLHNHHTEKSLSHSPGAA
For B1, the “glycan array binding signal (z-score)” value [1] was -0.216, the “glycan array binding signal (z-score)” value [2] was -0.222 and the “glycan array binding signal (z-score)” value [3] was -0.058. The “glycan array binding signal (z-score)” value [4] was 0.319, the “glycan array binding signal (z-score)” value [5] was 0.215 and the “glycan array binding signal (z-score)” value [6] was 0.226. For the same binder, the “glycan array binding signal (z-score)” value [7] was -0.1, the “glycan array binding signal (z-score)” value [8] was 0.373 and the “glycan array binding signal (z-score)” value [9] was -0.03. The “glycan array binding signal (z-score)” value [10] was -0.493, the “glycan array binding signal (z-score)” value [11] was -0.029 and the “glycan array binding signal (z-score)” value [12] was -0.45. The “glycan array binding signal (z-score)” value [13] was 0.372, the “glycan array binding signal (z-score)” value [14] was 0.013 and the “glycan array binding signal (z-score)” value [15] was 0.105. For the same binder, the “glycan array binding signal (z-score)” value [16] was 0.402, the “glycan array binding signal (z-score)” value [17] was 0.28 and the “glycan array binding signal (z-score)” value [18] was 0.036. For the same binder, the “glycan array binding signal (z-score)” value [19] was 0.167, the “glycan array binding signal (z-score)” value [20] was -0.317 and the “glycan array binding signal (z-score)” value [21] was -0.015. The “glycan array binding signal (z-score)” value [22] was -0.169, the “glycan array binding signal (z-score)” value [23] was -0.376 and the “glycan array binding signal (z-score)” value [24] was -0.353. The “glycan array binding signal (z-score)” value [25] was 0.453, the “glycan array binding signal (z-score)” value [26] was -0.468 and the “glycan array binding signal (z-score)” value [27] was -0.442. For the same binder, the “glycan array binding signal (z-score)” value [28] was 0.108, the “glycan array binding signal (z-score)” value [29] was -0.21 and the “glycan array binding signal (z-score)” value [30] was -0.142. For the same binder, the “glycan array binding signal (z-score)” value [31] was -0.357, the “glycan array binding signal (z-score)” value [32] was -0.087 and the “glycan array binding signal (z-score)” value [33] was 0.066. For the same binder, the “glycan array binding signal (z-score)” value [34] was -0.208, the “glycan array binding signal (z-score)” value [35] was -0.297 and the “glycan array binding signal (z-score)” value [36] was -0.353. The “glycan array binding signal (z-score)” value [37] was -0.363, the “glycan array binding signal (z-score)” value [38] was -0.377 and the “glycan array binding signal (z-score)” value [39] was -0.46. The “glycan array binding signal (z-score)” value [40] was -0.097, the “glycan array binding signal (z-score)” value [41] was 0.07 and the “glycan array binding signal (z-score)” value [42] was 12.1. The “glycan array binding signal (z-score)” value [43] was -0.359, the “glycan array binding signal (z-score)” value [44] was -0.443 and the “glycan array binding signal (z-score)” value [45] was -0.11.
